Experimental data taken from publication PMC12136788.
This is one part of the list.

T1: UNK ZnF1-6 (called full-length) (human, UniProt Q9C0B0 30-357)
T1 sequence: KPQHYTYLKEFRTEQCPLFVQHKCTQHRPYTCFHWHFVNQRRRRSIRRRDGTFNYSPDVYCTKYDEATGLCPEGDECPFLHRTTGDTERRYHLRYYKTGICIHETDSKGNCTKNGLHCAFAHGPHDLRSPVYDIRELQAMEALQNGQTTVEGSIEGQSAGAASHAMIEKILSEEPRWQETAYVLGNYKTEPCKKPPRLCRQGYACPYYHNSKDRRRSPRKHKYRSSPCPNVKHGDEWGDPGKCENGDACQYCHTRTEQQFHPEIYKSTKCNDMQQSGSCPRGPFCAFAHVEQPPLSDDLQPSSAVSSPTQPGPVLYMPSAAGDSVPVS

B1: chr10:102404582:102404727:-|CDS|ENSG00000059915|control|control|control (ssRNA)
RNA: GGGAGUUCUACAGUCCGACGAUCAUCACUCGCAUCAAUGUAGUAGCCGCUAUGUUCUCUGCGCCCCCCUUCCCAGCUGCUGUUAGCUCCCAAAAGAAGUUCAGCCGCCCUCUCCUGCCCAGCGCUGCCACCCGCCUCUCCCAGCAACAGAGGAUUGAGCAUCA
B2: chr11:65967286:65967395:+|CDS|ENSG00000175467|unk|total|mutant (ssRNA)
RNA: GGGAGUUCUACAGUCCGACGAUCGACCUUUAAAAAGACCAAGCGGAGGGUGAAGAAAAUCCGCAAGAAGGAGAAGGAGGCCGCCGUGCGGGCAGAUGACUUGCUGCCUCUCGGGGACCAGACUCAGGAUGGGGACUUUGGUUCCAACAGAGGAUUGAGCAUCA
B3: ENSG00000109133:stop:overlap|stop_codon|ENSG00000109133|stop_codon|NA|stop_codon (ssRNA)
RNA: GGGAGUUCUACAGUCCGACGAUCUGAGAAGACUUUGUCUCCAGAGCAUUGCCUUUAUAAGCAGAUUGGCACCAACAGUUCCAUAGUUUAACAUCUAGUUAAGCUACAAAUAUAGUAUAAGCAUUAUUAGCAGCUGGUACUUCUCAACAGAGGAUUGAGCAUCA
B4: chr19:19296988:19297344:-|CDS|ENSG00000105705|control|control|control (ssRNA)
RNA: GGGAGUUCUACAGUCCGACGAUCCUCCGCAGCCACCGUGAAGAGGAAGCGGAAGAGCCGGUGGGGGCCUGAAGAGGAUAAGGUAGAGCUCCCACCUGCUGAACUGGUGCAGAGGGACGUGGAUGCCUCUCCCUCGCCUCUGUCCAACAGAGGAUUGAGCAUCA
B5: chr1:25831912:25832087:-|three_prime_utr|ENSG00000127423|control|control|control (ssRNA)
RNA: GGGAGUUCUACAGUCCGACGAUCGACUGAGUUUGCAGAGCUGAGGGUUGUCAAUUUCCUUUUCUACUGAUAUCUUCUUCCUUUAGAGCAAACUUCCUCCUUAGGACCUCAGAGAUAAGCACAGCAGGGUCUUCCUCCUUCAAUCAACAGAGGAUUGAGCAUCA
B6: chr17:39471515:39471616:+|CDS|ENSG00000167258|unk|total|mutant (ssRNA)
RNA: GGGAGUUCUACAGUCCGACGAUCUUGCCUCCAAUACCAGCUCUUCCACAGCAACCACCUCUGCCUCCUUCUCAGCCAGCAUUCCGUCAGGUUCCUGCUUCCAGUACUUCAACUUUGCCCCCUUCUACUCACUCAAAGACAUCUCAACAGAGGAUUGAGCAUCA
B7: chrX:152166439:152166540:-|3pUTR|ENSG00000011677|unk|total|mutant (ssRNA)
RNA: GGGAGUUCUACAGUCCGACGAUCCACCACAAGCAGAUUCUCCCUGCCCACCGGCUGAACAAAGCUCCUAAGGGGUGUAUCAUCCGCUGCUGGUUGCCUUUUCAUCCAUCCUUUCCCCGUCCCCUGCUUCCUUGCCAUUGCUGGCAACAGAGGAUUGAGCAUCA
B8: chr17:2060671:2060772:-|3pUTR|ENSG00000070366|unk|total|mutant (ssRNA)
RNA: GGGAGUUCUACAGUCCGACGAUCCCGUGCUCUCGGGUGGCCUCCACCUGCUCCCUCUCUCCUCACUGGCCUUUCUUUCCGUCCCGCUUCCUCUUCAGGAAAUGUCCUGACUCCCCUCAGCUCCCCCUUCACCCCUCCUUGCCCCAACAGAGGAUUGAGCAUCA
B9: chr2:37079119:37079331:-|CDS|ENSG00000008869|control|control|control (ssRNA)
RNA: GGGAGUUCUACAGUCCGACGAUCAGUAGUUCACCUGGACCACCUACACGAAAAUUAUUAGCUAAAAAUCUCGCAGCCCUUUAUAGCAUUGGGGAUACUUUCACAGUUUUUCAGACACUUGAUAAAUGCAAUGACAUUAUCAGACAACAGAGGAUUGAGCAUCA
B10: ENSG00000124205:stop:overlap|stop_codon|ENSG00000124205|stop_codon|NA|stop_codon (ssRNA)
RNA: GGGAGUUCUACAGUCCGACGAUCCCAACAGAGGCCUGUGUCAAAGGAGGUUGAAGUCAAGGACCAACAAAGCAAGCAGGCUUUAGACCUCCACCAUCCAAAGCUCAUGCCCGGCAGUGGACUCGCCCUCGCUCCAUCUACCUGCAACAGAGGAUUGAGCAUCA
B11: chr15:93027272:93027374:+|3pUTR|ENSG00000173575|unk|FALSE|unique (ssRNA)
RNA: GGGAGUUCUACAGUCCGACGAUCCCAGGAAUCUGUGAGGAUGGUAUUCCCUGGAGUCUGGCUUUGAAAGAUUUCAUUGUUGGUAGAAAUAACAGGUUGAGAAAGAGGGAGUUAGCAUCACCUAAAACCUGCACGUGAACAAGGCAACAGAGGAUUGAGCAUCA
B12: chr2:74529670:74529771:-|5pUTR|ENSG00000115307|unk|total|mutant (ssRNA)
RNA: GGGAGUUCUACAGUCCGACGAUCUCUCCGCCGGACGCGAGUUGUGAGACGGCCCAAGGGGCCGCGGGGUAUGCUGGGACCGCCCGCCCUUCCGGCGCGCCUCAGGACUUCGGGUCCCCUCACCCCGGGCGGAUGCCCAAAGACCAACAGAGGAUUGAGCAUCA
B13: chr2:216122066:216122255:+|CDS|ENSG00000079246|unk|FALSE|unique (ssRNA)
RNA: GGGAGUUCUACAGUCCGACGAUCCCAUGGGCCUUCCUUUCCACUAAAAGGAAUUACCGAACAGCAAAAAGAAGGUCUUGAGAUAGUGAAAAUGGUGAUGAUAUCUUUAGAAGGUGAAGAUGGGUUGGAUGAAAUUUAUUCAUUCAACAGAGGAUUGAGCAUCA
B14: chr12:88493871:88493972:-|3pUTR|ENSG00000049130|msi1|FALSE|unique (ssRNA)
RNA: GGGAGUUCUACAGUCCGACGAUCAAGUAUCUUGACCAUAAAAAGUCAUUGCUGUUCUUGUUUCUAAUGUAAAUAGUGUCCAUUAGUAAAAGUGAAAUUCAGUCUUAAGUAGGGUGAAUUGGAUCACCAUUUACACAAGAGAUGCAACAGAGGAUUGAGCAUCA
B15: chr19:12875797:12875908:-|3pUTR|ENSG00000105612|unk|total|mutant (ssRNA)
RNA: GGGAGUUCUACAGUCCGACGAUCUUCGAGACCAGCCUGGGCUACACCGUGAGACCACAUCUCUACCCGAACUUAAAAAAAGUCCGCCAGGCACGGUGAUAAAUGCCUGCCGUCCCAGCCACUGAAGCCAGAGGAUCGAUUGAACAACAGAGGAUUGAGCAUCA
B16: chr20:3933335:3933436:-|3pUTR|ENSG00000101236|msi1|FALSE|bound_elsewhere (ssRNA)
RNA: GGGAGUUCUACAGUCCGACGAUCUUACAACACCUGCUAUCAAAUCAUCUAAGCUGAAAACAUGAGAUGCGCUUGGAAAGGCCUAGUCAGAAGCCAUUUCCUCUUAUCAUUUCCCUCUCCUAUGCACCAGUAAGGCCCGUCCAGCAACAGAGGAUUGAGCAUCA
B17: chr7:99177919:99178066:-|CDS|ENSG00000185467|control|control|control (ssRNA)
RNA: GGGAGUUCUACAGUCCGACGAUCGAGAAACGGUCUGAGAAGGAAAACCUGUGUCUUCUGAUAGAAGAACUUGGUGGGAUCGAUAGAAUUGAGGCUUUACAGCUGCAUGAGAACCGUCAAAUUGGCCAGUCGGCUUUGAACAUCCAACAGAGGAUUGAGCAUCA
B18: chr20:31606305:31606406:+|3pUTR|ENSG00000125968|msi1|total|mutant (ssRNA)
RNA: GGGAGUUCUACAGUCCGACGAUCUGAGGCACUGGCGAGGAGAGGGCGCUCCUCUCUGCACACCUACCCGUCACCAGAGACUUCCGGGGGUGGGAUUCCACUCGUGUGUUUCUAUUUUUUGAAAAGCAGACAUUUUAAAAAAUGCAACAGAGGAUUGAGCAUCA
B19: chr4:112268257:112268372:+|CDS|ENSG00000138660|unk|FALSE|unique (ssRNA)
RNA: GGGAGUUCUACAGUCCGACGAUCAGUAAUCCUACAUCAGCCUCUGAUGAUUCCAAUGGGCUGGAGUGGGAAAAUGAUUUUGUUAGUGCCGAAAUGGAUGAUAAUGGAAAUUCCGAGUAUUCUGGAUUUGUAAAUCCUGUAUUACAACAGAGGAUUGAGCAUCA
B20: chr6:1612588:1612689:+|3pUTR|ENSG00000054598|msi1|FALSE|unique (ssRNA)
RNA: GGGAGUUCUACAGUCCGACGAUCUUUAUUCAUGGACUUGUUUUAAAAUGUAAAUUGCAACAUAGUAAUUUAUUUUUAAUUUGUAGUUGGAUGUCGUGGACCAAACGCCAGAAAGUGUUCCCAAAACCUGACGUUAAAUUGCCUCAACAGAGGAUUGAGCAUCA
B21: chr2:130338606:130338707:-|3pUTR|ENSG00000136710|unk|FALSE|unique (ssRNA)
RNA: GGGAGUUCUACAGUCCGACGAUCUACUCAGCCAAAAGAUCAGGACAAUAUGACUUGAGUCCACAAGGACACAAACACCUGAGUAGCUGGGCAGCCCUUGGCAGGGUCUAAGCCAGGAAGUAAAAAUGAUCUGGCCUAGAUAUUCAACAGAGGAUUGAGCAUCA
B22: ENSG00000070961:be:win_5451|3pUTR|ENSG00000070961|bound_else_gene|NA|bound_elsewhere_windowed (ssRNA)
RNA: GGGAGUUCUACAGUCCGACGAUCUGAUAUUUUUGGUGGGUGGGGGAAAUCUUUUUCUCACCAUCAAAUCUUUGCAGUAAUCCUCUGCAGGUCUUAGAAACACAUUGGCUCUGUCAGCAUUUGUAAUUGUACAUUUAUUCAUCACAACAGAGGAUUGAGCAUCA

target: T1, UNK ZnF1-6 (called full-length); experiment: nsRBNS (natural sequence RNA bind-n-seq); RBNS binding buffer (assumed for nsRBNS): 25 mM Tris pH 7.5, 150 mM KCl, 3 mM MgCl2, 0.01% Triton X-100, 500 ug/ml BSA, 20 U/ml SUPERase-In, 4 C; UNK is unkempt and MSI1 is Musashi-1; names of the RNAs are library labels; protein concentration not given here; high values mean tight binding

Compared with B1, B2 is lower in binding signal: 1.22 enrichment R for the first, 1.13 enrichment R for the second.

Going from B3 to B4, the binding signal falls from 0.93 enrichment R to 0.595 enrichment R.

First: B5
Second: B6
The binding signal of the first is lower: 0.642 enrichment R for the first, 1.11 enrichment R for the second.

Going from B7 to B8, the binding signal rises from 0.903 enrichment R to 1.21 enrichment R.

Going from B9 to B10, the binding signal rises from 0.798 enrichment R to 0.854 enrichment R.

Compared with B11, B12 is lower in binding signal: 0.605 enrichment R for the first, 0.575 enrichment R for the second.

First: B13
Second: B14
The binding signal of the first is higher: 0.417 enrichment R for the first, 0.337 enrichment R for the second.

Compared with B15, B16 is lower in binding signal: 0.604 enrichment R for the first, 0.531 enrichment R for the second.

First: B17
Second: B18
The binding signal of the first is lower: 0.691 enrichment R for the first, 0.735 enrichment R for the second.

Compared with B19, B20 is higher in binding signal: 0.32 enrichment R for the first, 0.455 enrichment R for the second.

First: B21
Second: B22
The binding signal of the first is lower: 0.466 enrichment R for the first, 0.936 enrichment R for the second.
